This note sets out measurements from publication PMC6919601, “Identification of Plasmodium dipeptidyl aminopeptidase allosteric inhibitors by high throughput screening” (PLoS ONE, 2019).

SMILES strings stand for the structures. Hit rate of the full screen: of about 110,000 compounds, about 230 (0.21%) showed an effect of 50% or more. This is one part of the list.
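Further: 30 min substrate incubation versus DMSO and 10 µM JCP410 controls.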

The target in this assay is DPAP1 (Plasmodium falciparum, UniProt Q8IIJ9). The experiment in a line: primary screen, percent inhibition; read by cleavage of a fluorogenic dipeptide substrate; higher = more effect of the substance. On the set-up: species or system P. falciparum D10 trophozoite lysates; single well.
DPAP1, sequence (Q8IIJ9 whole entry, looked up): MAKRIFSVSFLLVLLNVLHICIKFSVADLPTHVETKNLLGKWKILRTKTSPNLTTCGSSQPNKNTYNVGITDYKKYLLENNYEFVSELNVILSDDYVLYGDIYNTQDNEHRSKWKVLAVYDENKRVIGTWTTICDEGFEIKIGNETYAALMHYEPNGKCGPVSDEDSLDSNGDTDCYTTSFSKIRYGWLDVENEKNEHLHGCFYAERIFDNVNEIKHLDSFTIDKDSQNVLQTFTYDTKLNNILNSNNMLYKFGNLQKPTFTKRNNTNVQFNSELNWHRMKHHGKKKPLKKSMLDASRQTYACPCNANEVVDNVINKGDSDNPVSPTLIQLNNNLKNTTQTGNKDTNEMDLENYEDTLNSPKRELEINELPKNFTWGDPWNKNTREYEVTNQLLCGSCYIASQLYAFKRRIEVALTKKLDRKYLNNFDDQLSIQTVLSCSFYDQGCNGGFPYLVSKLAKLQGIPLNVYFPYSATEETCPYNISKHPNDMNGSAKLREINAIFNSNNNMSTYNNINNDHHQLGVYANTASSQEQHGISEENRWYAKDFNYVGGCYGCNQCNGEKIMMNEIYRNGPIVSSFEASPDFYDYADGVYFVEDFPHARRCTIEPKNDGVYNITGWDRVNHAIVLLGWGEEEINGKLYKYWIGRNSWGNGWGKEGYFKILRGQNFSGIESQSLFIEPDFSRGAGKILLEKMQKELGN
Regarding `CCOC(=O)N1CCC(NC(=O)Cn2nc(Cc3ccncc3)c3ccccc3c2=O)CC1`, the “% Inhibition @ 10 uM” value amounted to 2.04%. As to `COC(=O)Nc1ccccc1C(=O)N1CCCCC1`, the “% Inhibition @ 10 uM” value came to 0.83%. As to `Cc1sc2c(c1C)c(=O)n(Cc1ccccc1)c(=O)n2Cc1cc(=O)n2ccccc2n1`, the “% Inhibition @ 10 uM” value amounted to 10.4%. Turning to `CC(C(=O)NCCCN1CCCC1=O)n1c2ccccc2c2cnn(C)c(=O)c21` (stereo not shown), the “% Inhibition @ 10 uM” value is reported as 1.18%. `Cc1ccc2c(c1)cc1c(=O)n(CC(=O)NC3CCCc4ccccc43)nc(C)n12` (stereo not shown): the “% Inhibition @ 10 uM” value is reported as -5.32%. Turning to `O=C(NCCN1CCOCC1)c1cc2c(s1)-c1ccccc1S(=O)(=O)C2`, the “% Inhibition @ 10 uM” value was -3.96%.

Turning to `C=CCSc1nnc(NC(=O)c2nc(S(=O)(=O)Cc3ccc(F)cc3)ncc2Cl)s1`, the “% Inhibition @ 10 uM” value is listed as -2.71%.

As for `COc1ccc(Cl)cc1-n1nnc(-c2nc(-c3ccncc3)no2)c1N`, the “% Inhibition @ 10 uM” value came out at 3.73%. Then `CC(C)n1c(-c2cccc(N)c2)nc2ccccc21`, with 0.795%; and `Cc1cccc(-c2noc(CCC(=O)NCc3ccco3)n2)c1`, with -0.45%. Consider `COc1ccccc1OCC(=O)Nc1ccc(S(=O)(=O)Nc2nc(C)cc(C)n2)cc1`, for which the “% Inhibition @ 10 uM” value is given as -0.473%. For `CN(C)c1ccc(/C=C2\C(=O)NC(=O)N(c3ccccc3Cl)C2=O)cc1` the value was 3.44%. `COc1ccc(OC)c(C2NC(S)=NC(C)=C2C(=O)OC2CCC(C)C(C)C2)c1` (stereo not shown): the “% Inhibition @ 10 uM” value is on record as 0.736%.

For the compound `Cc1cccc(Oc2nc3c(C)cccn3c(=O)c2/C=C(\C#N)C(=O)NCC2CCCO2)c1C` (stereo not shown), the “% Inhibition @ 10 uM” value stood at 0.315%. Then `Cc1ccc(CS(=O)Cc2ccc(C(=O)NC3CCCCC3)o2)cc1` (stereo not shown), with -3.65%. Take `CC(=O)N(C)c1c(N)n(Cc2ccccc2)c(=O)[nH]c1=O`: the “% Inhibition @ 10 uM” value came to 4.03%. As for `CCOC(=O)c1cnn(CCOC(=O)c2ccc(OC)cc2)c1NC(=O)c1ccc(OC)cc1`, the “% Inhibition @ 10 uM” value is -2.92%. In the case of `O=C(Nc1cnn(Cc2ccc(F)cc2)c1)c1cnn2c(C(F)F)cc(-c3ccccc3)nc12`, the “% Inhibition @ 10 uM” value is on record as 2.46%. For `O=C(CC[S+](O)CCC(=O)NCc1ccccc1)NCc1ccccc1` the value was 2.94%; for `O=C(Nc1ccccc1C(=O)O)c1ccc(Cl)cc1`, 3.06%.

As for `CCCCN(C)CCCNC(=O)c1ccc(-n2c(C)cc3c2CCCC3)cc1`, the “% Inhibition @ 10 uM” value turned out to be 3.24%. For `CC(=O)c1cc2c(cc1NC(=O)COc1ccccc1)OCO2`, the “% Inhibition @ 10 uM” value came to 7%. Then `COc1ccc(NC(=O)C2CC2(c2ccccc2)c2ccccc2)cc1` (stereo not shown), with -3.93%; and `O=C1CCCN1CCP(=O)(O)CN1CCCCC1`, with -7.02%. Then `CCc1ccc(C2=NN(CCC(=O)NCc3ccccc3Cl)C(=O)CC2)cc1`, with -4.53%. For `CCC(C)n1nc(O)c2c1NC(=O)CSC2c1ccc(Cl)cc1Cl` (stereo not shown) the value was -6.02%; for `O=C(NCc1cccnc1)C1CCC(CNS(=O)(=O)c2cccc3nsnc23)CC1` (stereo not shown), -2.25%. On to `CCOC(=O)N1CCC(NC(=O)c2cc(S(=O)(=O)N3CCOCC3)ccc2F)CC1`, for which the “% Inhibition @ 10 uM” value is given as -5.64%.

Take `Cc1c2c(nc3c(C(=O)NC4CCCC(C)C4C)cnn13)CCCC2` (stereo not shown): the “% Inhibition @ 10 uM” value came to 1.27%. Regarding `C=CCNC(=O)c1c(O)nc2ccccc2c1O`, the “% Inhibition @ 10 uM” value is listed as 1.27%. For the compound `O=C(Nc1ccc(O)cc1)c1sc2ccccc2c1Cl`, the “% Inhibition @ 10 uM” value is -4.43%. Turning to `COc1ccc(CC(=O)NCc2ccc(Cl)c(Cl)c2)cc1OC`, the “% Inhibition @ 10 uM” value was determined as 6.77%. For `Cc1ccc2oc(=O)c3cnn(CC(=O)N4CCN(C5CCCCC5)CC4)c3c2c1`, the “% Inhibition @ 10 uM” value was determined as 1.62%.

Regarding `CCc1nn(CC(=O)NC(C)CCc2ccco2)c(=O)c2cc3sccc3n12` (stereo not shown), the “% Inhibition @ 10 uM” value is reported as 3.4%. For `N#CCCn1c(COc2ccc(Cl)cc2Cl)nc2ccccc21`, the “% Inhibition @ 10 uM” value is given as -3.48%. Turning to `CN1CCC(NC2c3ccccc3-c3ccccc32)CC1`, the “% Inhibition @ 10 uM” value was -5.31%. As to `CC(Oc1ccccc1)C(=O)n1nc(-c2ccco2)nc1NCc1cccs1` (stereo not shown), the “% Inhibition @ 10 uM” value is reported as -3.24%. For the compound `O=C(Cn1cnc2ccccc21)NCCCN1CCOCC1`, the “% Inhibition @ 10 uM” value is listed as -1.51%. Turning to `CC(C)(C)C(=O)NCCc1nc2ccccc2n1CCCOc1ccccc1`, the “% Inhibition @ 10 uM” value was -4.07%. As for `COc1cc(/C=C2/SC(=O)N(CC(=O)N3CCN(c4ccccc4)CC3)C2=O)cc(OC)c1OC`, the “% Inhibition @ 10 uM” value worked out at 1.17%. On to `CN1CCN(c2nc(-c3ccc(C(=O)NC4(C(=O)NCC#N)CCOCC4)cc3)cs2)CC1`, for which the “% Inhibition @ 10 uM” value is -6.46%. As for `O=C(Nc1sc2c(c1C(=O)O)CCCCC2)c1cccs1`, the “% Inhibition @ 10 uM” value is -3.25%. As to `COC(=O)c1ccc(C2/C(=C(\O)OC3CCCCC3)C(C)=Nc3ncnn32)cc1` (stereo not shown), the “% Inhibition @ 10 uM” value was -0.326%. For `Cc1cccc(NC(=O)c2ccccc2NC(=O)c2ccccn2)c1`, the “% Inhibition @ 10 uM” value stood at 6.82%. For `COc1ccc(CO/N=C/c2c(C)[nH]c(=O)[nH]c2=O)cc1`, the “% Inhibition @ 10 uM” value amounted to 2.17%.

Turning to `CN1CCN(CCCOc2ccccc2-c2ccccc2)CC1`, the “% Inhibition @ 10 uM” value is on record as -11.2%. Regarding `O=C1/C(=C/c2ccc(N3CCOCC3)cc2)S/C(=N\c2ccccc2)N1CC1CCCO1` (stereo not shown), the “% Inhibition @ 10 uM” value is 7.17%. For `CCN1CCN(C(=O)c2ccc(CS(=O)(=O)c3ccccc3C)o2)CC1` the value was -1.51%; for `CCOC(=O)c1c(C)[nH]c(C)c1S(=O)(=O)NC(C)c1ccc2c(c1)OCCO2` (stereo not shown), -3.45%. As for `OC1=C2C(=Nc3nc(SCc4ccccc4)nn3C2c2cccnc2)CCC1` (stereo not shown), the “% Inhibition @ 10 uM” value was -0.363%. With `CNC(=O)C(=O)Nc1c(C)cccc1C`, the “% Inhibition @ 10 uM” value is -3.57%. With `COc1ccc(/C=C2\C(=O)ON=C2c2ccccc2)cc1COCC(F)(F)F`, the “% Inhibition @ 10 uM” value is given as -2.9%. For the compound `Cc1onc(-c2ccccc2Cl)c1-c1nc(-c2ccccc2)no1`, the “% Inhibition @ 10 uM” value was 4.91%. For `OCc1cc2ccccc2nc1O` the value was -4.91%.

In the case of `O=S(=O)(c1ccc(Cl)s1)N1CCN(c2nc3ccccc3nc2-c2ccccc2)CC1`, the “% Inhibition @ 10 uM” value turned out to be 2.77%. `COc1cccc(-c2nc(CS(=O)(=O)CC(=O)NC3CCCCC3C)c(C)o2)c1` (stereo not shown): the “% Inhibition @ 10 uM” value is -5.58%. For `Cc1ccc2nc(NC(=O)C3CCCN(S(=O)(=O)c4ccc5nc(O)oc5c4)C3)sc2c1` (stereo not shown) the value was -6.38%; for `CCCCCCCCCn1nc(C)cc1C`, -0.0372%; for `Cc1cccn2c(=O)c3cc(C(=O)NCc4ccccc4)c(=N)n(CC4CCCO4)c3nc12` (stereo not shown), 5.17%. For `Cc1ccc(OCC(=O)N2CCN(C(=O)COc3ccc(C)cc3)CC2)cc1` the value was -4.68%; for `c1ccc2[nH]c(CCSCCc3nc4ccccc4[nH]3)nc2c1`, 1.21%; for `CC[C@H](NC(=O)[C@H](CS(=O)(=O)Cc1ccccc1)NC(=O)N1CCOCC1)C(=O)c1nc2ccccc2[nH]1`, -6.98%. With `COc1ccc(C2C(C(=O)c3ccccc3)=C(O)C(=O)N2CCCN(C)C)c(OC)c1` (stereo not shown), the “% Inhibition @ 10 uM” value is -1.25%. For the compound `CC(C)CC(=O)N1c2ccccc2N=C2CC(C)(C)CC(O)=C2C1c1ccc2c(c1)OCO2` (stereo not shown), the “% Inhibition @ 10 uM” value is recorded as -2.77%. For the compound `CCc1nc2nc(C)cc(O)n2n1`, the “% Inhibition @ 10 uM” value is on record as -0.414%. For `CC1CCN(C(=O)c2ccc3c(c2)sc2nc(-c4ccc(F)cc4)cn23)CC1` the value was 25.2%; for `CCCn1c(=O)c2sccc2n2c(CCCC(=O)N3CCC(C(N)=O)CC3)nnc12`, -5.35%; for `COC(=O)CCCC(NC(=O)OCc1ccccc1)C(=O)NCC#N` (stereo not shown), -0.214%. Then `CCCCCCCCOc1ccc(/C=C(\C#N)c2nc(-c3ccc(Br)cc3)cs2)cc1`, with 2.54%; and `Cc1nc2sc(C(c3ccc(C(C)C)cc3)N3CCN(C)CC3)c(O)n2n1` (stereo not shown), with -6.62%.

For the compound `CCOC(=O)N1CCN(C(=O)C2c3cc(OC)c(OC)cc3C(=O)N(C)C2c2cccs2)CC1` (stereo not shown), the “% Inhibition @ 10 uM” value is reported as -0.503%. As for `CCSC1=NSC2=NC(=O)/C(=C\c3ccc(Cl)cc3)C(=N)N12`, the “% Inhibition @ 10 uM” value is -3.79%.

On to `CC(NC(=O)CCCn1c2ccccc2c2cnnc(O)c21)c1ccccc1` (stereo not shown), for which the “% Inhibition @ 10 uM” value is recorded as 4.55%.

On to `CC(C)(C)c1ccc(C(=O)Nc2cccnc2Cl)cc1`, for which the “% Inhibition @ 10 uM” value is on record as -0.318%.

With `CCC(C)(C)NS(=O)(=O)c1cccs1`, the “% Inhibition @ 10 uM” value was 2.01%. For the compound `Cc1nnc(NC(=O)CSc2nnc(Cc3cccn3C)n2CCc2ccccc2)s1`, the “% Inhibition @ 10 uM” value is reported as -7.65%. Turning to `CCNc1nc(C)cc(OC(F)F)n1`, the “% Inhibition @ 10 uM” value is -4.75%. Then `CC(C)c1ccc(/C=C2\N=C(c3ccccc3F)OC2=O)cc1`, with 4.54%; and `Cc1cccc(OCCCCCN2CCOCC2)c1C`, with 1.13%; and `CS(=O)(=O)CCC(C(=O)O)N1C(=O)c2ccc(Oc3ccc(Cl)cc3)cc2C1=O` (stereo not shown), with 6.3%. Take `COc1ccc(C(O)(c2ccccc2)c2ccccc2)cc1`: the “% Inhibition @ 10 uM” value is on record as 2.45%. As to `COc1ccc(N(C)C(=O)c2cc(F)c(Cl)nc2Cl)cc1`, the “% Inhibition @ 10 uM” value is reported as 0.907%.

As to `COc1ccc(Cn2c(C(=O)O)c(CNCc3cc(OC)ccc3OC)c3ccc(OC)cc32)cc1`, the “% Inhibition @ 10 uM” value amounted to 1.53%. Regarding `c1ccc(Cc2nc(-c3cccnc3)no2)cc1`, the “% Inhibition @ 10 uM” value was -4.14%.

On to `CCOC(=O)c1c(C)nc(C)c(C(=O)OCC)c1-c1ccc(Cl)cc1`, for which the “% Inhibition @ 10 uM” value was -2.91%. As for `CC1CCN(C(=O)Cc2noc3ccccc23)CC1`, the “% Inhibition @ 10 uM” value came to 9.85%.

Turning to `CC1(C)CC(=O)C(C(C2=C(O)CC(C)(C)CC2=O)c2ccccc2[N+](=O)[O-])C(=O)C1` (stereo not shown), the “% Inhibition @ 10 uM” value is recorded as -5.38%. Then `Cc1ccc(-n2nnnc2Cc2ccccc2F)cc1Cl`, with 5.45%; and `Cc1ccc2c(Cl)c(C(=O)Nc3ccc(C(N)=O)cc3)sc2c1`, with -4.65%.

In the case of `Cc1ccc(NC(=O)C2CCCN(c3ncnc4onc(C)c34)C2)nc1` (stereo not shown), the “% Inhibition @ 10 uM” value is 4.03%. For `CCCN1CCC(NCC(c2ccccc2)c2ccccc2)CC1` the value was -3.35%. For `CC1CN(Cc2ccc([N+](=O)[O-])cc2)CC(C)O1` (stereo not shown), the “% Inhibition @ 10 uM” value is -0.636%.

Take `COc1ccc2cc(C(=O)NCC(=O)O)sc(=O)c2c1OC`: the “% Inhibition @ 10 uM” value is recorded as -5.4%. In the case of `C1CCN(CC2COC3(CCCCC3)O2)CC1` (stereo not shown), the “% Inhibition @ 10 uM” value was -3.65%. As for `Cc1nc(-c2ccc(C(=O)Nc3ccc(C)c(Cl)c3)cc2)cs1`, the “% Inhibition @ 10 uM” value came out at 0.361%. Then `N#CC1=C(N)Oc2[nH]nc(-c3cccc4ccccc34)c2C1c1ccc(OCC(N)=O)cc1` (stereo not shown), with -0.994%; and `CCOC(=O)c1c(C)[nH]c(C)c1S(=O)(=O)NCC(=O)N1CCC(c2ccccc2)C1` (stereo not shown), with 3.62%.
